Target: isolated recombinant JAK1 kinase domain (Homo sapiens (Human), UniProt P23458)
Conditions: read-out: JAK1 Ki; isolated recombinant JAK1 kinase domain, 25 μM ATP

SMILES	Ki [nM]
O=C(c1ccc(Nc2nc3c(N4CCC(O)(c5ccc(Cl)cc5)CC4)cccn3n2)cc1)N1CCCC1Cc1ccccn1 (centres unmarked) [Example 1-124, [4-[[8-[4-(4-chlorophenyl)-4-hydroxy-1-piperidyl]-[1,2,4]triazolo[1,5-a]pyridin-2-yl]amino]phenyl]-[2-(2-pyridylmethyl)pyrrolidin-1-yl]methanone]	5.42
O=C(c1ccc(Nc2nc3c(N4CCC(O)(c5ccc(Cl)cc5)CC4)cccn3n2)cc1)N1CCC(N2CCOCC2)CC1 [Example 1-125, [4-[[8-[4-(4-chlorophenyl)-4-hydroxy-1-piperidyl]-[1,2,4]triazolo[1,5-a]pyridin-2-yl]amino]phenyl]-(4-morpholino-1-piperidyl)methanone]	2.25
O=C(c1ccc(Nc2nc3c(N4CCC(O)(c5ccc(Cl)cc5)CC4)cccn3n2)cc1)N1CCN(c2cccnc2)CC1 [Example 1-126, [4-[[8-[4-(4-chlorophenyl)-4-hydroxy-1-piperidyl]-[1,2,4]triazolo[1,5-a]pyridin-2-yl]amino]phenyl]-[4-(3-pyridyl)piperazin-1-yl]methanone]	3.22
O=C(c1ccc(Nc2nc3c(N4CCC(O)(c5ccc(Cl)cc5)CC4)cccn3n2)cc1)N1CCC(N2CCOCC2)C1 (centres unmarked) [Example 1-127, [4-[[8-[4-(4-chlorophenyl)-4-hydroxy-1-piperidyl]-[1,2,4]triazolo[1,5-a]pyridin-2-yl]amino]phenyl]-(3-morpholinopyrrolidin-1-yl)methanone]	1.99
CN1CCC(N(C(=O)c2ccc(Nc3nc4c(N5CCC(O)(c6ccc(Cl)cc6)CC5)cccn4n3)cc2)C2CC2)CC1 [Example 1-128, 4-[[8-[4-(4-chlorophenyl)-4-hydroxy-1-piperidyl]-[1,2,4]triazolo[1,5-a]pyridin-2-yl]amino]-N-cyclopropyl-N-(1-methyl-4-piperidyl)benzamide]	4.48
CC(C)N1CCC(CN(C)C(=O)c2ccc(Nc3nc4c(N5CCC(O)(c6ccc(Cl)cc6)CC5)cccn4n3)cc2)C1 (centres unmarked) [Example 1-129, 4-[[8-[4-(4-chlorophenyl)-4-hydroxy-1-piperidyl]-[1,2,4]triazolo[1,5-a]pyridin-2-yl]amino]-N-[(1-isopropylpyrrolidin-3-yl)methyl]-N-methyl-benzamide]	1.87
CC(C)N1CCC(N(C)C(=O)c2ccc(Nc3nc4c(N5CCC(O)(c6ccc(Cl)cc6)CC5)cccn4n3)cc2)CC1 [Example 1-130, 4-[[8-[4-(4-chlorophenyl)-4-hydroxy-1-piperidyl]-[1,2,4]triazolo[1,5-a]pyridin-2-yl]amino]-N-(1-isopropyl-4-piperidyl)-N-methyl-benzamide]	3.71
CC(C)CN1CCN(C(=O)c2ccc(Nc3nc4c(N5CCC(O)(c6ccc(Cl)cc6)CC5)cccn4n3)cc2)CC1 [Example 1-131, [4-[[8-[4-(4-chlorophenyl)-4-hydroxy-1-piperidyl]-[1,2,4]triazolo[1,5-a]pyridin-2-yl]amino]phenyl]-(4-isobutylpiperazin-1-yl)methanone]	7.2
O=C(c1ccc(Nc2nc3c(N4CCC(O)(c5ccc(Cl)cc5)CC4)cccn3n2)cc1)N1CCC(N2CCCC2)CC1 [Example 1-132, [4-[[8-[4-(4-chlorophenyl)-4-hydroxy-1-piperidyl]-[1,2,4]triazolo[1,5-a]pyridin-2-yl]amino]phenyl]-(4-pyrrolidin-1-yl-1-piperidyl)methanone]	2.79
COCCN1CCN(C(=O)c2ccc(Nc3nc4c(N5CCC(O)(c6ccc(Cl)cc6)CC5)cccn4n3)cc2)CC1 [Example 1-133, [4-[[8-[4-(4-chlorophenyl)-4-hydroxy-1-piperidyl]-[1,2,4]triazolo[1,5-a]pyridin-2-yl]amino]phenyl]-[4-(2-methoxyethyl)piperazin-1-yl]methanone]	2.78
CN(CCc1ccncc1)C(=O)c1ccc(Nc2nc3c(N4CCC(O)(c5ccc(Cl)cc5)CC4)cccn3n2)cc1 [Example 1-135, 4-[[8-[4-(4-chlorophenyl)-4-hydroxy-1-piperidyl]-[1,2,4]triazolo[1,5-a]pyridin-2-yl]amino]-N-methyl-N-[2-(4-pyridyl)ethyl]benzamide]	1.48
O=C(c1ccc(Nc2nc3c(N4CCC(O)(c5ccc(Cl)cc5)CC4)cccn3n2)cc1)N1CCN(CC2CC2)CC1 [Example 1-136, [4-[[8-[4-(4-chlorophenyl)-4-hydroxy-1-piperidyl]-[1,2,4]triazolo[1,5-a]pyridin-2-yl]amino]phenyl]-[4-(cyclopropylmethyl)piperazin-1-yl]methanone]	3.42
O=C(c1ccc(Nc2nc3c(N4CCC(O)(c5ccc(Cl)cc5)CC4)cccn3n2)cc1)N1CCN2CCCCC2C1 (centres unmarked) [Example 1-137, 1,3,4,6,7,8,9,9a-octahydropyrido[1,2-a]pyrazin-2-yl-[4-[[8-[4-(4-chlorophenyl)-4-hydroxy-1-piperidyl]-[1,2,4]triazolo[1,5-a]pyridin-2-yl]amino]phenyl]methanone]	3.88
CN(Cc1cccnc1)C(=O)c1ccc(Nc2nc3c(N4CCC(O)(c5ccc(Cl)cc5)CC4)cccn3n2)cc1 [Example 1-138, 4-[[8-[4-(4-chlorophenyl)-4-hydroxy-1-piperidyl]-[1,2,4]triazolo[1,5-a]pyridin-2-yl]amino]-N-methyl-N-(3-pyridylmethyl)benzamide]	1.53
CN(C)CCN1CCN(C(=O)c2ccc(Nc3nc4c(N5CCC(O)(c6ccc(Cl)cc6)CC5)cccn4n3)cc2)CC1 [Example 1-139, [4-[[8-[4-(4-chlorophenyl)-4-hydroxy-1-piperidyl]-[1,2,4]triazolo[1,5-a]pyridin-2-yl]amino]phenyl]-[4-[2-(dimethylamino)ethyl]piperazin-1-yl]methanone]	2.48
Cc1cccc(C(C)NC(=O)c2ccc(Nc3nc4c(N5CCC(O)(c6ccc(Cl)cc6)CC5)cccn4n3)cc2)n1 (centres unmarked) [Example 1-140, 4-[[8-[4-(4-chlorophenyl)-4-hydroxy-1-piperidyl]-[1,2,4]triazolo[1,5-a]pyridin-2-yl]amino]-N-[1-(6-methyl-2-pyridyl)ethyl]benzamide]	4.88
CN1CCCC(CNC(=O)c2ccc(Nc3nc4c(N5CCC(O)(c6ccc(Cl)cc6)CC5)cccn4n3)cc2)C1 (centres unmarked) [Example 1-141, 4-[[8-[4-(4-chlorophenyl)-4-hydroxy-1-piperidyl]-[1,2,4]triazolo[1,5-a]pyridin-2-yl]amino]-N-[(1-methyl-3-piperidyl)methyl]benzamide]	1.71
O=C(c1ccc(Nc2nc3c(N4CCC(O)(c5ccc(Cl)cc5)CC4)cccn3n2)cc1)N(Cc1ccccn1)C1CC1 [Example 1-142, 4-[[8-[4-(4-chlorophenyl)-4-hydroxy-1-piperidyl]-[1,2,4]triazolo[1,5-a]pyridin-2-yl]amino]-N-cyclopropyl-N-(2-pyridylmethyl)benzamide]	3.11
O=C(c1ccc(Nc2nc3c(N4CCC(O)(c5ccc(Cl)cc5)CC4)cccn3n2)cc1)N1CCCC(N2CCOCC2)C1 (centres unmarked) [Example 1-143, [4-[[8-[4-(4-chlorophenyl)-4-hydroxy-1-piperidyl]-[1,2,4]triazolo[1,5-a]pyridin-2-yl]amino]phenyl]-(3-morpholino-1-piperidyl)methanone]	3.49
O=C(c1ccc(Nc2nc3c(N4CCC(O)(c5ccc(Cl)cc5)CC4)cccn3n2)cc1)N1CCC(c2ccccn2)CC1 [Example 1-144, [4-[[8-[4-(4-chlorophenyl)-4-hydroxy-1-piperidyl]-[1,2,4]triazolo[1,5-a]pyridin-2-yl]amino]phenyl]-[4-(2-pyridyl)-1-piperidyl]methanone]	4.24
